Laboratory results taken from PubChem BioAssay AID360 (National Center for Advancing Translational Sciences (NCATS), 2006).
Hit rate of the full screen: of about 48,000 compounds, about 550 (1.1%) were called active. Not shown: some 4% with an inconclusive outcome. No stated cut-off is given here; in the data, active means potency below about 15 µM; inconclusive means mostly about 16 µM to 33 µM; inactive means weaker than that. The list shows a part of the results.

biological target: Lysosomal acid glucosylceramidase (Homo sapiens) (UniProt P04062); experiment: Glucocerebrosidase; conditions: purified enzyme, resorufin glucoside fluorescence (screen aimed at inhibitors), 20 min;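 further: the screen sought inhibitors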
Procedure, shortened: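 Normal human glucocerebrosidase (0.2 nM final) was assayed with resorufin β-D-glucopyranoside (30 uM final) in 50mM citric acid/KH2PO4, 10mM sodium taurocholate, 0.01% tween-20, pH 5.9. Compounds were titrated; fluorescence (Ex 548, Em 600) read after 20 min at RT.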
Potency means the concentration at half of the fitted maximal effect.

Sequence of UniProt P04062 (P04062 whole entry, looked up): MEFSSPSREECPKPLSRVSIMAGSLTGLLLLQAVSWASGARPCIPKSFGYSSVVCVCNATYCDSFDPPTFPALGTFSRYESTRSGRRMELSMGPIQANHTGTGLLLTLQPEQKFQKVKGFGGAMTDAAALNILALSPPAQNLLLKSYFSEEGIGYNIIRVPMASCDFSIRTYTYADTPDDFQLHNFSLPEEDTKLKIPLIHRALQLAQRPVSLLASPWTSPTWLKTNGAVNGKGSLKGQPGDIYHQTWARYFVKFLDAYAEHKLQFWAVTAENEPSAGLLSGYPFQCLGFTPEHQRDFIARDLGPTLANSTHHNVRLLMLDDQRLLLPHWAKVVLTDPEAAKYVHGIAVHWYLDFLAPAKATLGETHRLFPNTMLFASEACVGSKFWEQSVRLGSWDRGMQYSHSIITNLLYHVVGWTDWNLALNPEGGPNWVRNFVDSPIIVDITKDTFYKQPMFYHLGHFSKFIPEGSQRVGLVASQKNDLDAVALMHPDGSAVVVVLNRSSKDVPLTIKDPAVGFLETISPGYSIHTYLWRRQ

Potency, inactive:
CCCc1nnc(NC(=O)Cn2c(=O)sc3ccccc32)s1 > 76.9 µM
O=C(Nc1cccc(Cl)c1)c1ccc2c(=O)n3c(nc2c1)CCCCC3 > 76.9 µM
COC(=O)CCC(=O)c1oc2ccc(Br)cc2c1N > 76.9 µM
O=C(NCc1ccc2c(c1)OCO2)c1nn2cccnc2c1Cl > 76.9 µM
COC(=O)c1ccc(OCC(O)Cn2nnc3ccccc32)cc1 (stereo not given) > 76.9 µM
COc1ccccc1-n1cnnc1SCC(=O)Nc1cc(C(C)(C)C)nn1-c1ccccc1 > 76.9 µM
Cc1n[nH]c(=O)nc1NCCN(C)C > 76.9 µM
Cc1ccc(-c2nnn(CC(=O)N(c3ccc(F)cc3)C(C(=O)NC3CCCC3)c3ccco3)n2)o1 (stereo not given) > 76.9 µM
O=S(=O)(NCC1CCCO1)c1ccc(S(=O)(=O)N2CCc3ccccc3C2)cc1 (stereo not given) > 76.9 µM
COc1cccc(C(=O)N2CCN(Cc3ccc4c(c3)OCO4)CC2)c1OC > 76.9 µM
Cc1ccc(-n2ncc(-c3nnc(SCC(=O)NC4CCCC4)o3)c2N)cc1C > 76.9 µM
CC1=C(C(=O)N(C)C)C(c2ccc(Cl)c(Cl)c2)NC(=O)N1 (stereo not given) > 76.9 µM
O=C(CSc1nnc(CNC(=O)c2cccs2)o1)c1ccccc1 > 76.9 µM
Cc1c(C(=O)Nc2cccc3cccnc23)oc2ccccc12 > 76.9 µM
CCC(C)(C)n1nnnc1CN(Cc1cc2cc(OC)ccc2[nH]c1=O)C1CCCC1 > 15.4 µM
Cc1cc(C)n(C(=O)c2ccc(NC(=O)CC(C)C)cc2)n1 > 76.9 µM
CCOC(=O)Cc1csc(NC(=O)C2CCCCC2C(=O)O)n1 (stereo not given) > 76.9 µM
O=C(COc1ccc(Br)cc1)OCc1nnc(-c2ccccc2)o1 > 76.9 µM
CCOC(=O)Nc1ccc(Oc2ccccc2)cc1 > 76.9 µM
Cc1cc2nnc(SCC(=O)N3C(C)CCCC3C)n2c(N)n1 (stereo not given) > 76.9 µM
CCn1nc(C)c(Oc2ccccc2O)c1C > 76.9 µM
O=C(c1cccc(Cl)c1)N1CCN(C2CCCCCC2)CC1 > 76.9 µM
CCNc1nc(NCC)nc(N(C)n2cnnc2)n1 > 76.9 µM
CC(=O)c1cccc(NC(=O)CN(c2cccc(F)c2)S(C)(=O)=O)c1 > 76.9 µM
CCOc1cccc(C2C(C(=O)c3ccco3)=C(O)C(=O)N2Cc2ccncc2)c1 (stereo not given) > 76.9 µM
